Experimental data published in PMC12136788.
Some of the results follow.

T1: UNK ZnF1-3 (human, UniProt Q9C0B0 31-174)
T1 sequence: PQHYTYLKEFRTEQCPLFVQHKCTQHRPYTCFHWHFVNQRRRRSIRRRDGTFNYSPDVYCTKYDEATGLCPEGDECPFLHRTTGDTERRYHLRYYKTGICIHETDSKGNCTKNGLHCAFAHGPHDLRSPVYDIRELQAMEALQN

B1: 97366611_97369984_2373_CDS_ENSG00000059573_ENST00000371224|human|control|control (ssRNA)
RNA: GGGAGUUCUACAGUCCGACGAUCUCGCAGCAGCCACUUAGUAGUAAGCAGUCCCUCAAGUCCUACUGGUCCCCGGGCGUGGAUUCUCGAUGUACUGAUUCCCACUUCAGCUCCCAGUCCAAAGCGGUAACCAUCAGAAAAGCGCAACAGAGGAUUGAGCAUCA
B2: chr22:19452774:19452775:-_ENSG00000070010_ENST00000399523|hu_hu|FALSE|FALSE (ssRNA)
RNA: GGGAGUUCUACAGUCCGACGAUCCUUUUCAUUAUAGUUGAUGGCAAUCACAUCCCCGGUGGUCAGACAGGCAAAGUUCCUAAGUGCGUUUUCUAAUACGGCUUUGGGGUUGGUGAUGUCCAGGAAGUCAGGGCUCUGAGGUUGCAACAGAGGAUUGAGCAUCA
B3: 87448077_87448931_1292_CDS_ENSG00000140948_ENST00000268616|human|control|control (ssRNA)
RNA: GGGAGUUCUACAGUCCGACGAUCUCGAGCCACACCACUGCUGGUGACCAGCGGCGGGGCCGAGGGGUUCAGGCACCGUCUCUCUGACUUCUCCUUUUCCAGCUCCAGCUGGGUCUUGAGCUUCUUCUUUGCCCCCAUGGUAAGCAACAGAGGAUUGAGCAUCA
B4: chr5:67447025:67447026:+_ENSMUSG00000037736_ENSMUST00000038188|mus_mus|FALSE|FALSE (ssRNA)
RNA: GGGAGUUCUACAGUCCGACGAUCCUGCACCUAUAAGGAACCCACAUGCAAAGAACCGUCUAGCAUGGAAAUAAAUAAUUGCUAGUCAUACUCCAUAAGACACAGAAAAAGUUAUUGCUUACAUAACAGAGAAACACCUACCUGCAACAGAGGAUUGAGCAUCA
B5: 59262636_59274477_945_CDS_ENSMUSG00000025234_ENSMUST00000171975|mouse|control|control (ssRNA)
RNA: GGGAGUUCUACAGUCCGACGAUCCAGGCGCAUAACUGUGUUGUCAUCCACUAAGAUAUCACAACCAUGCGCAGGACACGAAAUAGUCUGCCCCAUGCCUUCCUCCAUUAUUUUUGUAGUUAAAUAUUCACUCCAGCACUGCAUCAACAGAGGAUUGAGCAUCA
B6: 158618557_158618677_5722_3pUTR_ENSG00000272047_ENST00000607778|human|control|control (ssRNA)
RNA: GGGAGUUCUACAGUCCGACGAUCCUCGAAACACUCUCAUAAUAAGCAGAUGAUAUCUUUAUUUGGCCCUCCAAAAAGUCAACAAGCAAAAUGACUUGAGGAUCCAAAAAACUGUUACCAUGACCUUUGCUCUUGAUCAAUCUGCAACAGAGGAUUGAGCAUCA
B7: chr7:63234579:63234580:-_ENSMUSG00000047037_ENSMUST00000052204|mus_mus|motif|central (ssRNA)
RNA: GGGAGUUCUACAGUCCGACGAUCCCAACCAUCGGGAGCUCUGUGCUGCAGAGGUCUGGACCUCACCCUGGUGCAAAGCCGGUUGUCCACUGGAUUAUUAGUUCACAGGCAAUGCUCACCGAGAGUCUCUUCUACGUGACAUGUCAACAGAGGAUUGAGCAUCA
B8: chr4:76703833:76703834:+_ENSG00000138768_ENST00000264904|hu_mus|motif|central (ssRNA)
RNA: GGGAGUUCUACAGUCCGACGAUCAUUGGAAUUGUUGGUUUUUAACAAGUUUUGAAGUAAAAUCAAACAAUCUUCCACGGCGGUACCUCCGUCACUGUUCCCCUCCUCUGUAAUAAUGUCCAGCAGUCGCUCAAAAGCAUUUUCCAACAGAGGAUUGAGCAUCA
B9: chr14:103969519:103969520:+_ENSG00000075413_ENST00000216288|hu_hu|FALSE|FALSE (ssRNA)
RNA: GGGAGUUCUACAGUCCGACGAUCAUCACUGGGUUACAGCUUUAGCUCAUUGGCAAUUUUGGAAGCAAUAUUUUUGAAGGCUAUGGAUGUCCCCGAUAUCCGCUUAAACCGGACCCCGUUCAGAGACAGUCUUGGCAGCUUGCACAACAGAGGAUUGAGCAUCA
B10: chr3:32568357:32568358:-_ENSG00000144635_ENST00000273130|hu_mus|motif|central (ssRNA)
RNA: GGGAGUUCUACAGUCCGACGAUCCGUAGGAGAUGUAGGUGUUGUAGGAGAAACAGAAGCAGGUUUCCGUGUGAUUCUGUCGGGCUCUGCGUGAACAUCUGAAAGCACAGGUUUCUGGCCUGACUUUUUGGCGGACGGUGGCAACAACAGAGGAUUGAGCAUCA
B11: 169404172_169417782_497_CDS_ENSG00000172292_ENST00000392687|human|control|control (ssRNA)
RNA: GGGAGUUCUACAGUCCGACGAUCUUGUCGAAACCAGCGCUGAAUGCUUCGAACAUCCCAGUCCAGUUGCUUGGAGAGGCCUUCCAAUCUCUUUUCAUCAGGAUGCUUUGUAAUUGCAGUGAAGACCUUUUCCAGAAUGGCAUUCAACAGAGGAUUGAGCAUCA
B12: chr4:83987663:83987664:+_ENSG00000138663_ENST00000264389|hu_hu|motif|central (ssRNA)
RNA: GGGAGUUCUACAGUCCGACGAUCACGUCCUUCGGUUAUCAUUUGAGAUGCUAUCUUUUCCGCCUUAGCUGCAGGGAUCUCGGAAAGAGCUCCAAGUUCUUCGAAGGUAAUAUUAUUAUAUAAUUUGCUUGCAGACAACAAAUUCAACAGAGGAUUGAGCAUCA
B13: chr1:58468927:58468928:-_ENSMUSG00000026034_ENSMUST00000148330|mus_mus|mus_mus_mus_hu_False|48_58 (ssRNA)
RNA: GGGAGUUCUACAGUCCGACGAUCAAUUACUGAAAAAGAUGUUCAUUACCUUAGCUAUGUACUUAAUGAACCAAAUUAUCUAAAAAACAUAAAAUGUGCAAUAUAAAAAUGUUAAGAAUUUACAAAGCUGUACAAAAUAACUUACAACAGAGGAUUGAGCAUCA
B14: chr9:34402745:34402746:-_ENSG00000164970_ENST00000297620|hu_hu|FALSE|FALSE (ssRNA)
RNA: GGGAGUUCUACAGUCCGACGAUCGGGGACGACCAGCCUUGUUCGGGCCAUGACAUUGUUCUUCUUGGGUUGCUGGUUGACAGGGCUACCCAUGCUGCCAUUCUUCAGGGAGCCCUUCCGGGCCAGCUCCCGCUGCUUCUCCUCCAACAGAGGAUUGAGCAUCA
B15: 88341318_88341438_1838_3pUTR_ENSMUSG00000074480_ENSMUST00000172699|mouse|control|control (ssRNA)
RNA: GGGAGUUCUACAGUCCGACGAUCGCAAAAUGACAUGUGGAUAGGGAGAAGGGAAAGGUCAGGAUGUGUGUCCUGGUGGCCACUUCUGGCUAAACAAAAGCUUCUCUUAGCUGCUUCCAGAUUUAAGGGUGUGUUGAGGUAUCACAACAGAGGAUUGAGCAUCA
B16: chr8:104447970:104447971:+_ENSG00000164934_ENST00000297579|hu_hu|hu_hu_hu_mus_False|8_8 (ssRNA)
RNA: GGGAGUUCUACAGUCCGACGAUCAUACACUUCCCUGCUUCGGCUCUUGUCCACAGGAAAGAUUCUAAUAGACUUAUCAAAGCUGGCAGACACAAAUUCCUUCCCAGUGGGAGAGUAGUCCACAUCAAGCACUGCAGACACGUGCAACAGAGGAUUGAGCAUCA
B17: chr16:94690422:94690423:+_ENSMUSG00000040785_ENSMUST00000117648|mus_mus|FALSE|FALSE (ssRNA)
RNA: GGGAGUUCUACAGUCCGACGAUCAUGUAUUCAAGGUUCACAUGUCUGUAUUUGCCACUGCCUACAGGUCACUAAAAAUACCUAGUUUUUGAAUAGUUUCUAAUACAGUUAGCUUGUUUUCAGGCCACAUUACAAGAUUGCAUGCAACAGAGGAUUGAGCAUCA
B18: chr5:151611259:151611260:+_ENSMUSG00000034021_ENSMUST00000016569|mus_mus|motif|central (ssRNA)
RNA: GGGAGUUCUACAGUCCGACGAUCGCAUUUCUGAACAUAAUGUUCAAGAAGUAAUAUCUAUACACAAUAACAUUCGGGACGGUUAAAAGCCCAUUCAAAUUACAGAAUUUUAUUGAUACAGUAGAUUAAUAUAAACUGAAAAAACAACAGAGGAUUGAGCAUCA
B19: 120821320_120821440_3349_CDS_ENSMUSG00000049878_ENSMUST00000056635|mouse|control|control (ssRNA)
RNA: GGGAGUUCUACAGUCCGACGAUCCUCAUAUUUGCAUCCUUGAAGCUCACAGAAGAAAGGCUUUGCCGCCAACUGUGCAAGGUACUGACUUGGCAUAUUUUCAUCCUGAUUCUGAAGAUUAACGUCUGAAAUGGAAGAUGGGACCAACAGAGGAUUGAGCAUCA
B20: chr2:117004238:117004239:+_ENSMUSG00000027351_ENSMUST00000028829|mus_mus|motif|central (ssRNA)
RNA: GGGAGUUCUACAGUCCGACGAUCUUAACUACUCAACACAUAUGGAAUGUGGUGGCAGAUAUGUGCACAUCUACCUCAGAACGGGGAAGGGCAAGAAAAGUUUAAUAUGUCAUAGUUCGUACCUUACAUUUAGUUAAAUAUAAACAACAGAGGAUUGAGCAUCA
B21: chr2:48026839:48026840:+_ENSG00000116062_ENST00000540021|hu_hu|hu_hu_hu_mus_False|58_98 (ssRNA)
RNA: GGGAGUUCUACAGUCCGACGAUCAUAGUGAGCCACUAGAGUCCUAAAUCUGGAACAGUGGCGGUCAUCCGAAAACUGACCUAUGAAAAACUUGCCCAGUGAAGUGUCCACAAAGCAAACACCAUACACACGAGUGUGACCAGACAACAGAGGAUUGAGCAUCA
B22: chr4:34756745:34756746:-_ENSMUSG00000039967_ENSMUST00000047950|mus_hu|FALSE|FALSE (ssRNA)
RNA: GGGAGUUCUACAGUCCGACGAUCUAUAUUUGGAUUUAUGACACUUUCCAUUGAGGACAACAAUGGAGUUGACACACUUGCUAAAUGAGCUGGAAAAAUGGGUGGCGAGACAUGCUGCAACUGGGCCGAACAAGCAGGAUUCCCCAACAGAGGAUUGAGCAUCA

biological target: T1, UNK ZnF1-3; assay: nsRBNS (natural sequence RNA bind-n-seq); RBNS binding buffer (assumed for nsRBNS): 25 mM Tris pH 7.5, 150 mM KCl, 3 mM MgCl2, 0.01% Triton X-100, 500 ug/ml BSA, 20 U/ml SUPERase-In, 4 C; UNK is unkempt and MSI1 is Musashi-1; names of the RNAs are library labels; protein concentration not given here; high values mean tight binding

| Binder | binding signal [enrichment R] |
| --- | --- |
| B1 | 1.09 |
| B2 | 1.27 |
| B3 | 0.87 |
| B4 | 1.72 |
| B5 | 0.994 |
| B6 | 1.03 |
| B7 | 1.2 |
| B8 | 0.723 |
| B9 | 0.881 |
| B10 | 0.886 |
| B11 | 0.659 |
| B12 | 0.952 |
| B13 | 1.8 |
| B14 | 0.601 |
| B15 | 1.32 |
| B16 | 1.23 |
| B17 | 0.883 |
| B18 | 2.91 |
| B19 | 1.59 |
| B20 | 1.06 |
| B21 | 1.18 |
| B22 | 1.66 |
